Laboratory results taken from paper PMC9911399, “Two distinct binding modes provide the RNA-binding protein RbFox with extraordinary sequence specificity”.
Changes are numbered by the printed parent chain; changes in the protein carry UniProt numbers. The list shows a part of the results.

T1: RBFOX1 RRM RbFoxmut (Fox-RRM*) (Homo sapiens, UniProt Q9NWB1 109-208, R118D;E147R;N151S;E152T)
T1 sequence: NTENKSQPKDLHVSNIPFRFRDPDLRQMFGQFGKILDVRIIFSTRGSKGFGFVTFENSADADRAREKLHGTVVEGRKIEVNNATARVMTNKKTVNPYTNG

B1: AUCUGUU (DNA:RNA)
RNA: GGGAGACCGGAAUUCAGAUUGUCCAUCUGUUUUAAAUCCCGUCGUAGCCACCA
DNA 1: CAATCTGAATTCCGGTCTCCC
DNA 2: TGGTGGCTACGACGGGATT
B2: CAUACCU (DNA:RNA)
RNA: B1 RNA with A25C, U26A, C27U, U28A, G29C, U30C
DNA 1: CAATCTGAATTCCGGTCTCCC
DNA 2: TGGTGGCTACGACGGGATT
B3: GCAUCAC (DNA:RNA)
RNA: B1 RNA with A25G, U26C, C27A, G29C, U30A, U31C
DNA 1: CAATCTGAATTCCGGTCTCCC
DNA 2: TGGTGGCTACGACGGGATT
B4: GGGGGCC (DNA:RNA)
RNA: B1 RNA with A25G, U26G, C27G, U28G, U30C, U31C
DNA 1: CAATCTGAATTCCGGTCTCCC
DNA 2: TGGTGGCTACGACGGGATT
B5: GAAGUAG (DNA:RNA)
RNA: GGGAGACCGGAAUUCAGAUUGUCCGAAGUAGUUAAAUCCCGUCGUAGCCACCA
DNA 1: CAATCTGAATTCCGGTCTCCC
DNA 2: TGGTGGCTACGACGGGATT
B6: UUAAUAC (DNA:RNA)
RNA: B5 RNA with G25U, A26U, G28A, G31C
DNA 1: CAATCTGAATTCCGGTCTCCC
DNA 2: TGGTGGCTACGACGGGATT
B7: AUGCACG (DNA:RNA)
RNA: B1 RNA with C27G, U28C, G29A, U30C, U31G
DNA 1: CAATCTGAATTCCGGTCTCCC
DNA 2: TGGTGGCTACGACGGGATT
B8: UAUUGUA (DNA:RNA)
RNA: B1 RNA with A25U, U26A, C27U, U31A
DNA 1: CAATCTGAATTCCGGTCTCCC
DNA 2: TGGTGGCTACGACGGGATT
B9: CGCUCAU (DNA:RNA)
RNA: B1 RNA with A25C, U26G, G29C, U30A
DNA 1: CAATCTGAATTCCGGTCTCCC
DNA 2: TGGTGGCTACGACGGGATT

Biological target: T1, RBFOX1 RRM RbFoxmut (Fox-RRM*)
Test: EMSA; HiTS-Eq, 1 nM pool, 10 min; buffer printed only for the single-RNA assays: 10 mM Tris pH 7.5, 150 mM NaCl, 3.4 mM EDTA, 0.001% NP-40, 30 C
Conditions: tags: His6 N-terminal (pET28a); label: 5' 32P
In short: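 Purified RbFox RRM, wild type or mutant, was incubated for 10 min in 50 µL with 1 nM of a 5′-radiolabelled RNA pool carrying 7 randomized nucleotides, whose flanks were annealed to DNA oligonucleotides, over a series of increasing protein concentrations. Unbound RNA was resolved on 8% native PAGE, cut out, reverse-transcribed, barcoded by PCR and sequenced on an Illumina HiSeq 2500. Relative association constants were derived from changes in read counts for each RNA species versus the control reaction and normalised to the cognate motif.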

Binder	binding signal
B1	0.0926 KA relative to UGCAUGU
B2	0.106 KA relative to UGCAUGU
B3	0.293 KA relative to UGCAUGU
B4	0.171 KA relative to UGCAUGU
B5	0.128 KA relative to UGCAUGU
B6	0.116 KA relative to UGCAUGU
B7	0.551 KA relative to UGCAUGU
B8	0.213 KA relative to UGCAUGU
B9	0.0668 KA relative to UGCAUGU
